Assay results reported in the supplement of paper PMC12340641.
Over roughly 1,000 compounds, “relative growth in counter assay (no AraC = 100%, AraC + DMSO = 0%)” has its median near -1.1; the highest 2% begin near 20. The list shows a part of the results.

tested on: HEK293FT dCK*-only; test: relative growth in counter assay (no AraC = 100%, AraC + DMSO = 0%); higher = more growth rescue independent of IKZF1; details: compound concentration: 5 uM; AraC concentration: 0.3 uM; overnight pretreatment + 4 days AraC
Procedure: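 Growth recovery screen of the molecular-glue-like (Specs) library. HEK293FT cells expressing a dCK*-IKZF1 fusion (primary) or dCK* alone (counter) were pretreated overnight with compound at 5 uM, then given 0.3 uM AraC for 4 days. Hoechst nuclei were counted by imaging. Primary: normalised to pomalidomide (100%) and DMSO (0%), mean of 2 replicates. Counter: normalised to no-AraC (100%) and AraC+DMSO (0%), single replicate.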

| Compound | relative growth in counter assay [%] |
| --- | --- |
| COc1cc(NS(=O)(=O)c2ccc(NC(=O)c3ccccc3)cc2)nc(OC)n1 | 2.14 |
| Cc1ccc(C(C)(C)C(=O)N2CCCC2c2cccc(Nc3ncc(C)s3)n2)cc1 (stereo not given) | -21 |
| CCCc1cnc(Nc2cccc(C3CCN(C(=O)CN(C)C)CC3)n2)s1 | -21.5 |
| Cc1ccnc(NS(=O)(=O)c2ccc(NC(=O)CCCc3ccccc3)cc2)n1 | 0.72 |
| Cc1ccnc(NS(=O)(=O)c2ccc(NC(=O)c3ccc(-c4ccccc4)cc3)cc2)n1 | 0.76 |
| COc1cc(NS(=O)(=O)c2ccc(Nc3nc(-c4sc(C)nc4C)cs3)cc2)nc(OC)n1 | 4.44 |
| Cc1cnc(Nc2cccc(C3CCN(C(=O)C4(NC(=O)CC(C)(C)C)CCCCC4)CC3)n2)s1 | -20.4 |
| CC(C)C(C(=O)Nc1ccc(S(=O)(=O)Nc2ncccn2)cc1)N1C(=O)c2ccccc2C1=O (stereo not given) | 2.48 |
| Cc1cnc(Nc2cccc(C3CCN(CC(=O)Nc4ccc(F)cc4)CC3)n2)s1 | -18 |
| Cc1ccc(S(=O)(=O)Nc2ccc(S(=O)(=O)Nc3nccc(C)n3)cc2)cc1 | -5.66 |
| Cc1cc(C)nc(NS(=O)(=O)c2ccc(NC(=O)CSc3nnnn3-c3ccccc3)cc2)n1 | 1.47 |
| COc1ccccc1CCC(=O)N1CCCC1c1cccc(Nc2nc(C)cs2)n1 (stereo not given) | 2.36 |
| Cc1cnc(Nc2cccc(C3CCN(C(=O)C4CCCC(C)C4)CC3)n2)s1 (stereo not given) | -17.5 |
| O=C(C1CCCCC1)N1CCOC(c2cccc(Nc3ncc(Cc4cccc(Cl)c4)s3)n2)C1 (stereo not given) | 13.1 |
| O=C(CCc1cccc(Cl)c1)N1CCOC(c2cccc(Nc3nccs3)n2)C1 (stereo not given) | 19.5 |
| CC(C)(C)C(=O)Nc1ccc(S(=O)(=O)Nc2ncccn2)cc1 | -0.18 |
| Cc1ccnc(NS(=O)(=O)c2ccc(NC(=O)c3ccc4c(c3)OCO4)cc2)n1 | 3.33 |
| COc1cc(NS(=O)(=O)c2ccc(NCc3ccccc3O)cc2)nc(OC)n1 | -0.72 |
| CCOC(=O)CN(C(=O)CSc1nnc2c(n1)[nH]c1ccc(OC)cc12)c1ccc(F)cc1 | 1.26 |
| Nc1ccc(S(=O)(=O)Nc2nccc(/C=C/c3ccc(Br)s3)n2)cc1 | -0.05 |

| Compound | relative growth in counter assay [%] |
| --- | --- |
| CCCCc1cnc(Nc2cccc(C3CCN(C(=O)C4(C)CCCN4C(=O)OC(C)(C)C)CC3)n2)s1 (stereo not given) | 5.27 |
| CC(C)c1ccc(OCC(=O)Nc2ccc(S(=O)(=O)Nc3ncccn3)cc2)cc1 | -2.94 |
| Cc1cc(C)nc(NS(=O)(=O)c2ccc(NC(=O)CSc3nc(C)cc(C)n3)cc2)n1 | -6.83 |
| O=C(C1CCCCC1)N1CCOC(c2cccc(Nc3ncc(Cc4ccc(Cl)cc4)s3)n2)C1 (stereo not given) | 2.81 |
| Cc1cnc(Nc2cccc(CC3CCN(C(=O)c4ccccc4F)CC3)n2)s1 | -15.7 |
| CCCCc1cnc(Nc2cccc(C3CCN(C(=O)C4CCCCC4)CC3)n2)s1 | -18.2 |
| CNCC(=O)N1CCC(c2cccc(Nc3ncc(-c4cccnc4)s3)n2)CC1 | -23.5 |
| O=S(=O)(Nc1ncccn1)c1ccc(-n2cccc2)cc1 | -10.3 |
| O=C(O)CCOCCOCCOCCOCCNc1ccc2c(c1)C(=O)N(C1CCC(=O)NC1=O)C2=O (stereo not given) | 9.95 |
| Cc1cnc(Nc2cccc(CC3CCN(C(=O)c4ccccc4)CC3)n2)s1 | -4.86 |
| Cc1cc(C)nc(NS(=O)(=O)c2ccc(NS(=O)(=O)/C=C/c3ccccc3)cc2)n1 | 5.62 |
| CCOCCC(=O)Nc1ccc(S(=O)(=O)Nc2nccc(C)n2)cc1 | -2.85 |
| Cc1ccnc(NS(=O)(=O)c2ccc(NS(C)(=O)=O)cc2)n1 | -0.67 |
| Cc1csc(Nc2cccc(C3CCCN3C(=O)CC3CC(C)(C)NC(C)(C)C3)n2)n1 (stereo not given) | 4.79 |
| Cc1cc(C)nc(NS(=O)(=O)c2ccc(NC(=O)c3sc4nc5c(cc4c3N)CCC5)cc2)n1 | -3.64 |
| Cc1cc(C)nc(NS(=O)(=O)c2ccc(NC(=O)c3ccccc3[N+](=O)[O-])cc2)n1 | -2.11 |
| COc1ccc(S(=O)(=O)Nc2ccc(S(=O)(=O)Nc3ncccn3)cc2)cc1 | -4.6 |
| Cc1cc(NS(=O)(=O)c2ccc(NC(=O)c3ccc(Br)cc3)cc2)nc(C)n1 | 13.4 |
| Cc1ccc(C)c(OCC(=O)Nc2ccc(S(=O)(=O)Nc3ccccn3)cc2)c1 | -1.12 |
| Cc1nc(Nc2cccc(C3CCCN3C(=O)COCCN3CCCC3=O)n2)sc1C (stereo not given) | 3.35 |

| Compound | relative growth in counter assay [%] |
| --- | --- |
| CCC(Oc1ccccc1)C(=O)Nc1ccc(S(=O)(=O)Nc2nc(C)cc(C)n2)cc1 (stereo not given) | -3.58 |
| Cc1cc(NS(=O)(=O)c2ccc(NC(=O)c3cc4ccccc4o3)cc2)nc(C)n1 | -3.17 |
| O=C1CCC(N2C(=O)c3ccc(C(=O)O)cc3C2=O)C(=O)N1 (stereo not given) | -11.1 |
| CC(C)(N)C(=O)N1CCC(c2cccc(Nc3ncc(-c4cccnc4)s3)n2)CC1 | -23.8 |
| Cc1cc(C)nc(NS(=O)(=O)c2ccc(NC(=O)c3ccc(C(C)(C)C)cc3)cc2)n1 | -6.45 |
| COc1cc(NS(=O)(=O)c2ccc(NC(=O)c3ccc(C#N)cc3)cc2)nc(OC)n1 | 3.37 |
| Cc1ncc(C(=O)N2CCOC(c3cccc(Nc4nc(C)c(C)s4)n3)C2)c(C)n1 (stereo not given) | -2.64 |
| Cc1cnc(Nc2cccc(C3CN(C(=O)C(C)n4cnc5ccccc54)CCO3)n2)s1 (stereo not given) | -6 |
| Cc1ccc(N2C(=O)c3ccc(Oc4ccc(N)cc4)cc3C2=O)cc1 | -5.81 |
| O=C(Nc1ccc(S(=O)(=O)Nc2ncccn2)cc1)C1CC(=O)N(CCc2ccc(F)cc2)C1 (stereo not given) | -5.62 |
| Cc1nc(C)c(C(=O)N2CCOC(c3cccc(Nc4ncc(C)s4)n3)C2)o1 (stereo not given) | -17 |
| CN(Cc1ccccc1)[C@@H]1CCC[C@@H](n2cnc3c(N)nc(N)nc32)[C@@H]1O | -3 |
| Cc1cc(C)nc(NS(=O)(=O)c2ccc(NC(=O)c3ccc(Cl)cc3)cc2)n1 | -0.52 |
| COc1ccc(C(=O)Nc2ccc(S(=O)(=O)Nc3ncccn3)cc2)c(OC)c1 | -2.17 |
| Cc1cccnc1Nc1nc(C2CCN(CC(N)=O)CC2)cs1 | -1.13 |
| CC(C)Oc1ccc(C(=O)Nc2ccc(S(=O)(=O)Nc3ncccn3)cc2)cc1 | 3.6 |
| Cc1cccc(C)c1OCC(=O)Nc1ccc(S(=O)(=O)Nc2ncccn2)cc1 | 3.62 |
| COc1cc(NS(=O)(=O)c2ccc(NC(=O)Cc3ccccc3)cc2)nc(OC)n1 | 6.59 |
| O=C(C1CCCCC1)N1CCC(c2cccc(Nc3nccs3)n2)CC1 | -10.8 |
| CN1CCCc2cc(C(=O)N3CCCC3c3cccc(Nc4nccs4)n3)ccc21 (stereo not given) | 1.52 |
